Conditions in all cases: pure darobactins
Test [1] has as its system P. aeruginosa PA14 (DSM-19882).
Test [2] relates to P. aeruginosa PAO1 (DSM-22644).
The test system of test [3] is E. coli BW25113.
Test [4] relates to S. marcescens DSM-30121.
The subject of test [5] is P. aeruginosa PA14 ΔmexAB.
Test [6] concerns E. coli JW0451-2 ΔacrB.
Test [7] deals with E. coli K12 ΔtolC.
Test [8] concerns P. aeruginosa NCTC 13437 (MDR).
Test [9] has as its system K. pneumonia DSM-30104.
The test system of test [10] is E. coli ATCC-25922.
Test [11] has as its system Proteus vulgaris DSM-2140.
Test [12] deals with P. aeruginosa DSM-1117.
The subject of test [13] is A. baumannii DSM-30008.
Test [14] concerns A. baumannii NCTC 13301 (MDR).
Test [15] relates to P. mirabilis DSM-4479.
The subject of test [16] is A. baumannii DSM-30007.
The subject of test [17] is Citrobacter freundii DSM-30039.
For test [18], the system named is Morganella morganii DSM-30164.

No end group written: not given here. Bounds are passed on as bounds.

As a reminder, the MIC is the smallest concentration in the dilution series that meets the test's criterion for growth inhibition. High values mean a less susceptible organism, low ones a more susceptible organism. Consider “D32: engineered darobactin, core peptide WNWCKRW, cysteine disulfide-bonded to L-cysteine and lactic acid (not fully specified; also: Cys4 disulfide-bonded to L-cysteine, lactic acid attached, position not given here)”, for which the MIC was 8 µg/mL in test [1]; 2 µg/mL in test [2]; 1 µg/mL in test [3]; more than 64 µg/mL in test [4]; 4 µg/mL in [5]; 1 µg/mL in [6]. Moreover, the MIC in test [7] was 0.5 to 1 µg/mL; in [8] it was 16 µg/mL; in test [9], 8 µg/mL; in test [10], 2 µg/mL; in test [11], more than 64 µg/mL; in test [12] it was 16 µg/mL. Besides, the MIC was 1 µg/mL in test [13]; 2 to 4 µg/mL in test [14]; more than 64 µg/mL in test [15]; 1 to 2 µg/mL in [16]; 2 to 4 µg/mL in test [17]; more than 64 µg/mL in test [18].

For the origin of these results see PMC10107326 (Angewandte Chemie (International Ed. in English), 2022).
